# From PubChem BioAssay AID1347073 (National Center for Advancing Translational Sciences (NCATS), 2019)
# Hit rate of the full screen: of about 45,000 compounds, about 200 (0.44%) were called active. The inconclusive results got no clear call from the source; some entries with a clear call stand among them for comparison. The call rests on the fitted dose curve; in most records, active means well fitted activation curve with a large enough effect; inconclusive means small, poorly fitted or top-dose-only effect; inactive means no such curve, though single readings can be large or run the other way. Potencies of inconclusive entries are doubtful fits and often do not repeat.
# Experiment: qHTS of TDP-43 Inhibitors: NCGC Sytravon Library Screen; further: nearly all actives have a fitted effect of over 55% in size; on growth rescue (activation): 0% is about no effect
# Conditions: yeast TDP-43 toxicity rescue, BacTiter-Glo growth, 24 h; growth rescue (activation): at 46.1 µM (top of the series)
# Summary of the method: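 TDP-43-expressing yeast, pregrown in raffinose, seeded at OD600 0.02 in galactose medium with compound for 24 hr at 30 deg C. Growth read by BacTiter-Glo luminescence, so rescue of toxicity appears as activation.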
# Potency means the concentration at half of the fitted maximal effect; tags describe the fitted curve by direction and shape.
SMILES,Potency,growth rescue (activation)
Cc1ccccc1-c1noc(-c2ccccc2C(=O)O)n1,"inconclusive: 35.5 µM [activator, single point]",–
O=C1NC2(CCCCCC2)C(=O)N1Cc1cccc(Cl)c1,"inconclusive: 12.6 µM [activator, single point]",–
O=C1CCCCCN1CSc1nc2ccccc2s1,"inconclusive: 12.6 µM [activator, partial curve, poor fit]",–
Cc1cc(OCC(=O)N(Cc2ccc(N(C)C)cc2)Cc2ccco2)cc(C)c1Cl,"inconclusive: 22.4 µM [activator, single point]",–
Cc1ccc(OCc2ccccc2C)c([N+](=O)[O-])n1,"inconclusive: 11.2 µM [activator, partial curve, poor fit]",–
COc1cccc(CNc2nc3nc(C)c(Cl)c(=O)n3[nH]2)c1,"inconclusive: 11.2 µM [activator, partial curve]",–
CCS(=O)(=O)N1CCN(c2ccc(Cl)cc2[N+](=O)[O-])CC1,"inconclusive: 4.47 µM [activator, partial curve]",–
CC(C)(C)NC(=O)CSc1nc(-c2ccccc2)cc(=O)[nH]1,–,inactive: 5.46%
CC(C)CCSc1nnc2n(-c3ccccc3)c(=O)c3c4c(sc3n12)CC(C)CC4 (stereo not drawn),–,inactive: -2.49%
O=[N+]([O-])c1ccc(-c2nc(-c3cccs3)c(-c3cccs3)[nH]2)cc1,active: 3.16 µM,–
CCOC(=O)C(=NC(C)CC)NNc1cccc(C(F)(F)F)c1 (stereo not drawn),"inconclusive: 14.1 µM [activator, partial curve]",–
CN(C(=O)c1cc(-c2ccc3c(c2)OCO3)on1)c1ccccc1,"inconclusive: 11.2 µM [activator, partial curve, poor fit]",–
Cc1ccc(C(=O)CNc2ccc(F)cc2)cc1,"inconclusive: 14.1 µM [activator, partial curve, poor fit]",–
O=C(Nc1ccccc1N1CCCCC1)c1cnccn1,"inconclusive: 11.2 µM [activator, partial curve, poor fit]",–
O=C(CSc1nc2cc(Cl)ccc2s1)NCC1CCCO1 (stereo not drawn),"inconclusive: 17.8 µM [activator, single point]",–
O=C(CCNC(=O)c1ccccc1Cl)Nc1nc(-c2ccc(F)cc2)cs1,"inconclusive: 11.2 µM [activator, partial curve]",–
CC(Cc1cccs1)NC(=O)c1cccc(Cl)c1 (stereo not drawn),"inconclusive: 11.2 µM [activator, partial curve]",–
Cc1ccc(Cl)cc1NC(=O)CSCc1cnn(-c2ccccc2)c1-n1cccc1,"inconclusive: 22.4 µM [activator, single point]",–
